The structures appear in SMILES notation. The campaign covered roughly 310,000 compounds. About 14,000 (4.5%) showed an effect of 50% or more. Effects have a minus sign here. Some of the results follow.
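Note: peak tail current of the secondary pulse compared with the same well before compound.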

In the test the target is human ether-à-go-go-related gene (hERG) potassium channel (human, UniProt Q12809). Nature of the test: primary screen, population patch clamp on CHO cells stably expressing hERG.
Sequence of human ether-à-go-go-related gene (hERG) potassium channel (Q12809 whole entry, looked up): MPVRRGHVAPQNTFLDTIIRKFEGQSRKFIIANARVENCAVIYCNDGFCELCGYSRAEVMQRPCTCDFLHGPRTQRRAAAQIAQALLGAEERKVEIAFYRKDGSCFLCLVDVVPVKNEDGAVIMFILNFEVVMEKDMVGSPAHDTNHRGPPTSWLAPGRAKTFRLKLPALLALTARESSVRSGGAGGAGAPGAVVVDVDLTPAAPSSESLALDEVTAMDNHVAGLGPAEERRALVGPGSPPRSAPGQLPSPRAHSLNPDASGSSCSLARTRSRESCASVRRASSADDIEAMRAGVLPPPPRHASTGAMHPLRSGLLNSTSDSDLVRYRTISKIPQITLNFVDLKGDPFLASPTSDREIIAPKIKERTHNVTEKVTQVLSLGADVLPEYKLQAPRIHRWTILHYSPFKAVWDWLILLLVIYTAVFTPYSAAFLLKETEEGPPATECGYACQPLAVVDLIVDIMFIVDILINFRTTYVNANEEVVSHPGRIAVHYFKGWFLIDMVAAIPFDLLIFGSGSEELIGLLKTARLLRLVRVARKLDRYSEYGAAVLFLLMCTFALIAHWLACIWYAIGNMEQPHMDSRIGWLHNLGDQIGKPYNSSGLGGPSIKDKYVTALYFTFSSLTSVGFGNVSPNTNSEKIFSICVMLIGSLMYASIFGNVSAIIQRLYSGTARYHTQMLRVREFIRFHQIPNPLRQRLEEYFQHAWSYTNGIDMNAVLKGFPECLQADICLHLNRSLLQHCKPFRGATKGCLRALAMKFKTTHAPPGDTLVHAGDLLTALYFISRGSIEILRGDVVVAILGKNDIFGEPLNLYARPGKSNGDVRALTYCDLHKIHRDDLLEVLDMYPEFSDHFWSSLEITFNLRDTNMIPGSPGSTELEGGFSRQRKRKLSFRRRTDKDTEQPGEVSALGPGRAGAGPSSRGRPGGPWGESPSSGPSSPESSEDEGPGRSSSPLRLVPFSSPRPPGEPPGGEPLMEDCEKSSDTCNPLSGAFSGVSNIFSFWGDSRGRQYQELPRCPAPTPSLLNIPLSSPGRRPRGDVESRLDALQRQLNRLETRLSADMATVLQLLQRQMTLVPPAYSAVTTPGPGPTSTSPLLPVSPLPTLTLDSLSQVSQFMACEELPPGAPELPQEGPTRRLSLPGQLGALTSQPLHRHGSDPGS
Take `COc1cc(OC)cc(-c2c(-c3cccs3)c3cc(-c4ccc(OC)c(OC)c4)ccc3n2C)c1`: the “hERG current change (%, negative = inhibition) at 10uM” value was 14.6%.

Take `CC(=O)N1CCN(c2ccccc2NC(=O)c2cccc3c(Cl)cccc23)CC1`: the “hERG current change (%, negative = inhibition) at 10uM” value is -19.2%.

In the case of `Cc1nonc1OCCn1nnnc1N`, the “hERG current change (%, negative = inhibition) at 10uM” value is recorded as 21.7%.

For the compound `O=C(NCC(c1ccco1)N1CCN(c2ccc(F)cc2)CC1)OCc1ccccc1` (centres unmarked), the “hERG current change (%, negative = inhibition) at 10uM” value was -23.4%.

As to `CSCc1ccc(C(=O)N2CCC(N3CCC(C(=O)NC(C)C)CC3)CC2)o1`, the “hERG current change (%, negative = inhibition) at 10uM” value turned out to be 5.19%.

Consider `C=CCSc1nnc(NC(=O)C2CSC3(C)CCC(=O)N23)s1` (centres unmarked), for which the “hERG current change (%, negative = inhibition) at 10uM” value is listed as -6.07%.

As for `CCOC(=O)N1CCN(C(=O)COc2ccc(S(=O)(=O)NC(C)C)cc2)CC1`, the “hERG current change (%, negative = inhibition) at 10uM” value was found to be 5.43%.

On to `CC(C)Nc1nc(NC(C)C)nc(N(C)C(N)=O)n1`, for which the “hERG current change (%, negative = inhibition) at 10uM” value was -12.1%.

On to `CC1=NNC(=O)C1CC(=O)N/N=C/C=C/c1ccccc1` (centres unmarked), for which the “hERG current change (%, negative = inhibition) at 10uM” value came to 31.1%.

Turning to `Cc1ccccc1C1C(C#N)=C2N=C(N)c3c(sc4c3CCCCC4)N2C2=C1C(=O)CC(C)(C)C2` (centres unmarked), the “hERG current change (%, negative = inhibition) at 10uM” value came out at 15.4%.

Turning to `Cc1cc(C)nc(-n2ncc3c2CC(c2ccc(F)cc2)CC3=O)n1` (centres unmarked), the “hERG current change (%, negative = inhibition) at 10uM” value is given as 1.62%.

Take `Cc1ccc(C)n1NC(=O)c1ccccc1[N+](=O)[O-]`: the “hERG current change (%, negative = inhibition) at 10uM” value stood at 11.9%.

For `CCOC(=O)c1ccc(NC(=O)CCSCCc2ccccn2)cc1`, the “hERG current change (%, negative = inhibition) at 10uM” value was 0.702%.

As for `CCOc1ccc(NS(=O)(=O)c2ccc(NC(=O)c3ccccc3C(=O)O)cc2)cc1`, the “hERG current change (%, negative = inhibition) at 10uM” value was found to be 4.91%.

Take `COc1ccc(C(=O)NC2CCN(C(=S)Nc3ccc(C)cc3)CC2)cc1`: the “hERG current change (%, negative = inhibition) at 10uM” value is -1.18%.

`CCc1ccc(N(CC)C(=O)c2cn(C)c(=O)c3ccccc23)cc1`: the “hERG current change (%, negative = inhibition) at 10uM” value is -5.57%.

Regarding `CC(C)OC(=O)C1C2C=CC3(CN(C(C)c4ccc(Br)cc4)C(=O)C13)O2` (centres unmarked), the “hERG current change (%, negative = inhibition) at 10uM” value was -7.04%.

As for `Cl.O=C(NCCN1CCCC1)C1COc2ccccc2O1` (centres unmarked), the “hERG current change (%, negative = inhibition) at 10uM” value came to 19.4%.

For the compound `O=C(c1cccc(-c2nnc(-c3ccccc3)o2)c1)N1CCCCCC1`, the “hERG current change (%, negative = inhibition) at 10uM” value is -24.9%.

As for `Cc1cccc(N2CCN(S(=O)(=O)c3c(C)[nH]c(C)c3C(=O)N3CCCC3)CC2C)c1` (centres unmarked), the “hERG current change (%, negative = inhibition) at 10uM” value was -19.2%.

As to `COc1cccc(C(=O)Nc2ccc3nc(N4CCN(c5ncccn5)CC4)cc(C)c3c2)c1OC`, the “hERG current change (%, negative = inhibition) at 10uM” value is recorded as -11.8%.

With `O=C(NNC(=O)c1ccc(Br)s1)c1cccc(S(=O)(=O)N2CCCC2)c1`, the “hERG current change (%, negative = inhibition) at 10uM” value is reported as -18.7%.

For `N#C/C(=C\c1cccc(Oc2ccccc2)c1)C(=O)N1CCOCC1`, the “hERG current change (%, negative = inhibition) at 10uM” value is listed as 4.68%.

`COC(=O)C1=CN(CC2CCCO2)C=C(C(=O)OC)C1c1cc(OC)c(OC)c(OC)c1` (centres unmarked): the “hERG current change (%, negative = inhibition) at 10uM” value is listed as -11.8%.

For the compound `NC(=O)c1ncc(C(F)(F)F)cc1Cl`, the “hERG current change (%, negative = inhibition) at 10uM” value is 31.8%.

On to `O=C(Nc1ccc(CN2CCOCC2)cc1)c1ccc(-c2ccc(Cl)cc2Cl)o1`, for which the “hERG current change (%, negative = inhibition) at 10uM” value was -7.54%.

On to `Cc1cc(NC(=O)CSC2=NS(=O)(=O)c3cc(F)ccc3N2)no1`, for which the “hERG current change (%, negative = inhibition) at 10uM” value was -2.34%.

`O=C(O)/C=C/C(=O)Nc1ccccc1-c1ccccc1`: the “hERG current change (%, negative = inhibition) at 10uM” value turned out to be 3.01%.

Take `CCOC(=O)Cn1nc(C)c(NC(=O)CCc2ccccc2)c1C`: the “hERG current change (%, negative = inhibition) at 10uM” value is given as 9.5%.

For `c1ccc(-n2cc(CN3CCC(N4CCOCC4)CC3)c(-c3ccc4c(c3)OCO4)n2)cc1`, the “hERG current change (%, negative = inhibition) at 10uM” value is -50.8%.

Take `COc1ccccc1N1CCN(C(=O)c2ccc3c(c2)NC(=O)C(CSCc2ccccc2C)N3)CC1` (centres unmarked): the “hERG current change (%, negative = inhibition) at 10uM” value is on record as 20.2%.

As to `COc1ccccc1NC(=O)CN1CCN(Cc2ccccc2)CC1`, the “hERG current change (%, negative = inhibition) at 10uM” value is listed as -67.6%.

On to `COc1ccc(OC)c(NC(=O)CCNS(=O)(=O)c2ccc3c(c2)oc(=O)n3C)c1`, for which the “hERG current change (%, negative = inhibition) at 10uM” value is given as -9.09%.

`COc1ccc(-n2nc(C(=O)NCC(=O)N3CCC(C)CC3)c3ccccc3c2=O)cc1Cl`: the “hERG current change (%, negative = inhibition) at 10uM” value is 9.08%.

For the compound `Cn1c(SCC(=O)Nc2ccccc2)nnc1-c1ccc(NC(=O)CCc2ccccc2)cc1`, the “hERG current change (%, negative = inhibition) at 10uM” value worked out at 4.53%.

Consider `O=C(CN1C(=O)C2C3C=CC(C4CC34)C2C1=O)Nc1cccc2ncccc12` (centres unmarked), for which the “hERG current change (%, negative = inhibition) at 10uM” value came to 0.881%.

Take `Cc1ccc(Nc2c(-c3cccnc3)nc3ccc(Br)cn23)cc1`: the “hERG current change (%, negative = inhibition) at 10uM” value was -23.7%.

Take `Cc1cccc(NC(=O)C[n+]2ccc(N(C)C)cc2)c1.[Cl-]`: the “hERG current change (%, negative = inhibition) at 10uM” value is 14%.

Consider `CC1(C)CC(=O)C=C(Nc2ccccc2O)C1`, for which the “hERG current change (%, negative = inhibition) at 10uM” value came out at 15.7%.

As to `CC1CC(C)CN(c2nc3c(c(=O)n(C)c(=O)n3C)n2CCSc2ncccn2)C1` (centres unmarked), the “hERG current change (%, negative = inhibition) at 10uM” value was -15.2%.

In the case of `O=C(CN1C(=O)CSC1=O)N1CCc2ccccc2C1`, the “hERG current change (%, negative = inhibition) at 10uM” value was 9.51%.

Take `COC(=O)c1cc(S(=O)(=O)N2CCN(c3ccc(F)cc3)CC2)c[nH]1`: the “hERG current change (%, negative = inhibition) at 10uM” value was found to be 16.9%.

For the compound `COc1cccc(-n2c(SCC(N)=O)nnc2-c2ccncc2)c1`, the “hERG current change (%, negative = inhibition) at 10uM” value stood at 16%.

With `O=C(Cn1c2ccc(F)cc2c2nc3n(c(=O)c21)CCS3)Nc1ccccc1C(F)(F)F`, the “hERG current change (%, negative = inhibition) at 10uM” value was 15.6%.

As for `Cc1nn(C(=O)CCCn2cc([N+](=O)[O-])cn2)c(C)c1Cl`, the “hERG current change (%, negative = inhibition) at 10uM” value is -46.3%.

For `CN1C(=O)OC(C)(CCc2ccccc2)C1(C)O` (centres unmarked), the “hERG current change (%, negative = inhibition) at 10uM” value is 11.5%.

For `CC(=O)Nc1c(Cl)cnn(-c2ccccc2)c1=O`, the “hERG current change (%, negative = inhibition) at 10uM” value is on record as 16.7%.

With `O=C(O)CN=C(NS(=O)(=O)c1ccc(Cl)cc1)c1ccccc1`, the “hERG current change (%, negative = inhibition) at 10uM” value is 13.7%.

As to `CCOc1cccc(/C=C(\C#N)C(=O)NC2CC2)c1`, the “hERG current change (%, negative = inhibition) at 10uM” value was 4.33%.

With `COc1ccc(N(C(=O)Nc2ccc(Cl)cc2)C2=NCCC2)cc1`, the “hERG current change (%, negative = inhibition) at 10uM” value is -5.35%.

For the compound `O=Cc1cccc(OCc2cccc3ccccc23)c1`, the “hERG current change (%, negative = inhibition) at 10uM” value is 5.87%.

With `S=C(Nc1ccccc1)N1CCN(c2ccccn2)CC1`, the “hERG current change (%, negative = inhibition) at 10uM” value came out at 7.75%.

As for `COc1ccccc1NS(=O)(=O)c1cccc(NC(=O)Nc2cccc(Cl)c2)c1`, the “hERG current change (%, negative = inhibition) at 10uM” value is -4.54%.

As for `COc1ccc(CN2CCCCCC2)c(C)c1C`, the “hERG current change (%, negative = inhibition) at 10uM” value is recorded as -28.3%.

On to `COC(=O)c1ccc(N2CCN(CC(=O)c3ccc(-c4ccccc4)cc3)CC2)c([N+](=O)[O-])c1`, for which the “hERG current change (%, negative = inhibition) at 10uM” value was 8.75%.

In the case of `O=C(Nc1cccc2ccccc12)NC1CCS(=O)(=O)C1` (centres unmarked), the “hERG current change (%, negative = inhibition) at 10uM” value is 21.5%.

The values are drawn from paper PMC4336329 (PLoS ONE, 2015).
